Measurements from the supplement of paper PMC4166925.
± gives the standard deviation of the averaged measurements. Whole data set: some 33,000 sequences, median “E-score (dimensionless, -0.5 to 0.5)” near -0.046, cut for the highest 2% near 0.36. This is one part of the list.

Each sequence was assayed on T1, SpTbr T-box DNA-binding domain (GST fusion) (assay: PBM E-score of 8-mer (E-score (dimensionless, -0.5 to 0.5)); Tbr is Tbrain of the sea star Patiria miniata (Pm) or the sea urchin Strongylocentrotus purpuratus (Sp); higher = stronger binding preference; most listed sequences are background and not binding sites). Details: the construct has about 5 more residues each side.
T1 sequence: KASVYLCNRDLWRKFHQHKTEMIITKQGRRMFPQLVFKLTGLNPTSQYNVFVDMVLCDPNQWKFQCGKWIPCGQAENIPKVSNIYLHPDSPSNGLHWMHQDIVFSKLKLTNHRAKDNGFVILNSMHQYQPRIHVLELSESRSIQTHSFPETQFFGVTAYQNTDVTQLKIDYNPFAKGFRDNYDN
Description: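 Universal protein-binding microarray (Agilent AMADID 016060, 60-bp probes with a 35-bp variable region) incubated with 200 nM GST-fused Strongylocentrotus purpuratus Tbr T-box DNA-binding domain (residues 362-554) in PBS pH 7.5. Scored for every ungapped 8-mer (given with its reverse complement) as E-score (range -0.5 to 0.5; >0.45 counts as bound) and Z-score of median probe intensity. Two replicate arrays (datasets 1 and 2).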
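Also: protein at 200 nM in PBS on universal double-stranded arrays.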

| Sequence | PBM E-score of 8-mer |
| --- | --- |
| GGGGTTAC | -0.202 ± 0.012 |
| CTTGGACC | -0.253 ± 0.015 |
| CGGGAATA | -0.0588 ± 0.042 |
| AGCAGAAC | -0.263 ± 0.055 |
| CTATGTGC | 0.116 ± 0.028 |
| CGGGCGAC | 0.153 ± 0.015 |
| AGTCGTGA | 0.262 ± 0.0032 |
| CCGGTCTC | -0.163 ± 0.054 |
| AGCATGCG | -0.0367 ± 0.068 |
| ACTAGAGA | -0.268 ± 0.15 |
| AGTACTCA | -0.105 ± 0.04 |
| GTACCGGA | -0.239 ± 0.011 |
| GGGGGTTA | -0.156 ± 0.038 |
| CCGGGATA | -0.146 ± 0.014 |
| CGCCGTCC | -0.146 ± 0.077 |
| GCGCGCAA | 0.213 ± 0.029 |
| CTACTATA | -0.32 ± 0.021 |
| ACAAGGAA | -0.183 ± 0.04 |
| ACAATCCC | 0.0605 ± 0.02 |
| AAGTTGGT | -0.0114 ± 0.097 |
| CAAGTGTA | 0.249 ± 0.051 |
| AAGATGGG | 0.0523 ± 0.063 |

| Sequence | PBM E-score of 8-mer |
| --- | --- |
| CGTTCTAA | -0.125 ± 0.0024 |
| GCCGTCGA | -0.0165 ± 0.011 |
| TCACCCAA | 0.0846 ± 0.028 |
| CAACCACC | -0.0489 ± 0.062 |
| GGCTCCCA | -0.0523 ± 0.044 |
| ATTGCCGC | 0.0762 ± 0.043 |
| ATGGAGGG | -0.0404 ± 0.12 |
| AGTCCATG | 0.00336 ± 0.0095 |
| ACCTGAAC | -0.0151 ± 0.0025 |
| GCTGATCC | -0.15 ± 0.062 |
| AAAATATC | 0.0896 ± 0.046 |
| AGAATAAC | 0.0583 ± 0.052 |
| CGGTACAA | -0.199 ± 0.02 |
| AGAAGCCT | -0.158 ± 0.051 |
| CGGTAGAG | 0.0309 ± 0.1 |
| CGGCCCGC | -0.162 ± 0.024 |
| AGGCTGGC | -0.111 ± 0.082 |
| AAACAACG | -0.00585 ± 0.023 |
| AGGCCTTG | -0.325 ± 0.014 |
| GAGGTCGA | -0.0955 ± 0.014 |
| GTGGATAA | 0.0538 ± 0.043 |
| AACAACCT | 0.228 ± 0.017 |

| Sequence | PBM E-score of 8-mer |
| --- | --- |
| AGGGTATC | -0.107 ± 0.025 |
| AACACGTC | 0.372 ± 0.009 |
| CGCCAACC | 0.222 ± 0.045 |
| GGTAGAAA | -0.0328 ± 0.017 |
| GCATCTCC | -0.148 ± 0.05 |
| ACACTCTC | 0.3695 ± 0.0036 |
| AGCGAAAC | -0.0989 ± 0.038 |
| CCGCCACA | 0.157 ± 0.021 |
| CTTTTTCC | -0.132 ± 0.081 |
| AGATATAT | -0.0833 ± 0.098 |
| AGTGACCC | 0.0454 ± 0.0085 |
| ATTGATCA | 0.0353 ± 0.0021 |
| AATATCGC | 0.195 ± 0.093 |
| CGCGATTA | 0.276 ± 0.026 |
| CCCAAACA | -0.2 ± 0.019 |
| GAGTTTCA | -0.0835 ± 0.035 |
| CCACGCGC | 0.215 ± 0.083 |
| CCGTTGTA | -0.101 ± 0.0039 |
| GCGTGTAC | 0.114 ± 0.011 |
| GATTTCGC | 0.312 ± 0.018 |
| ATAGATCG | 0.0137 ± 0.011 |
| CACGCAGC | 0.052 ± 0.043 |

| Sequence | PBM E-score of 8-mer |
| --- | --- |
| AATACTTG | -0.0104 ± 0.015 |
| AGTACGTC | -0.00329 ± 0.092 |
| CAAGTTAG | -0.0678 ± 0.046 |
| CTCTAAAA | -0.0823 ± 0.057 |
| GCAGCTAC | -0.0942 ± 0.041 |
| AAGATTTA | 0.02 ± 0.041 |
| CGCCTAAA | 0.126 ± 0.0092 |
| AGGTCAGC | -0.0859 ± 0.025 |
| CCCATGCG | -0.0538 ± 0.042 |
| TATATCAA | -0.174 ± 0.03 |
| CAAGTGAG | 0.2355 ± 0.00093 |
| AATAGAGT | 0.0106 ± 0.055 |
| CAATGTAA | 0.0482 ± 0.014 |
| TAAAACGA | -0.00372 ± 0.1 |
| ATGTACCC | -0.0278 ± 0.015 |
| ACAACCAG | 0.0822 ± 0.017 |
| AAAACCGA | -0.0359 ± 0.11 |
| AGCAGGGA | 0.145 ± 0.048 |
| ATTAATCA | -0.102 ± 0.018 |
| TCATGACA | 0.172 ± 0.023 |
| GAACGACC | -0.0991 ± 0.057 |
| CCTGAAGA | -0.196 ± 0.029 |

| Sequence | PBM E-score of 8-mer |
| --- | --- |
| TCCCGTCA | 0.131 ± 0.014 |
| CTCCACAG | -0.0194 ± 0.034 |
| AATGTCTG | -0.0358 ± 0.0065 |
| AATCGAGG | 0.143 ± 0.077 |
| CGCGATGA | 0.17 ± 0.015 |
| GCGTCGAA | 0.0237 ± 0.026 |
| CCTGCGAA | 0.367 ± 0.0099 |
| CAGCAGAA | -0.184 ± 0.057 |
| CCCATCCC | -0.253 ± 0.041 |
| CTAACTAG | 0.0135 ± 0.086 |
| CTACACGA | -0.138 ± 0.0086 |
| AAACATCC | -0.0301 ± 0.062 |
| ATGGCAAA | -0.201 ± 0.017 |
| AACATGAG | -0.0951 ± 0.0035 |
| AGAAGAAC | -0.258 ± 0.0064 |
| CGCATGAA | -0.0519 ± 0.012 |
| AATGTATC | -0.0326 ± 0.042 |
| CACACACA | 0.3384 ± 0.00066 |
| AGGCACAT | -0.0779 ± 0.053 |
| AGGCAGTG | -0.23 ± 0.038 |
| ACCTCTCG | 0.151 ± 0.0051 |
